Data taken from PubChem BioAssay AID1508624 (National Center for Advancing Translational Sciences (NCATS), 2021).
Hit rate of the full screen: of about 48,000 compounds, about 120 (0.25%) were called active. Roughly 4% stayed inconclusive and do not appear here. Calls follow the shape of the dose curve; as a rule, active = well fitted activation curve with a large enough effect; inconclusive = small, poorly fitted or top-dose-only effect, or another doubt; inactive = no such curve, though single readings can be large or run the other way. This is one part of the list.

Experiment: Primary qHTS for Identification of Small Molecule Activators of Huntingtin-Antisense Promoter Activity; also: nearly all actives have a fitted effect of over 55% in size
Conditions: HEK293 HTT-AS promoter firefly luciferase reporter (activity 0% = vehicle and -100% = no light), 24 h; series mostly up to 57.5 µM; activity change, positive = activation: at the top concentration
In short: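 HEK293 luciferase promoter-reporter cells (2,500/well) plated 24 h, then compounds added at up to 57.5 uM final for 24 h at 37 °C. Firefly luminescence by Dual-Glo, normalized to vehicle (0%) and zero RLU (-100%).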

Activity change, positive = activation, inactive:
O=C(NCCSc1c(-c2ccc(Cl)cc2)[nH]c2ccccc12)c1ccc(S(=O)(=O)N2CCOCC2)cc1 -25.7%
COc1ccc(Nc2ncnc3c2cnn3C)c(OC)c1 4.11%
Cc1nn(-c2ccccc2)c2c1cc1c(=O)[nH]c(=O)nc-1n2-c1cccc(C(F)(F)F)c1 -11.7%
Cc1cc(C)c(S(=O)(=O)NCC(c2ccco2)N2CCN(c3ccccc3)CC2)c(C)c1 (stereo not given) -27.4%
Cc1ccc(-n2nc3c(=O)n(CCCC(=O)NCc4ccc(F)cc4)nc(C)c3c2C)cc1 -18.6%
Cc1cc(C(F)(F)F)c2c(N)c(C(=O)Nc3c(Cl)cccc3Cl)sc2n1 -15.5%
O=C(CN1CCN(Cc2ccc(F)cc2)C1=O)NCc1ccccc1 -7.2%
Cc1ccc2c(c1)-c1onc(C(=O)N3CCN(c4cccc(C)c4C)CC3)c1CO2 -8.44%
CC(C)c1ccc(NC(=O)c2cc3c(=O)oc4ccccc4c3s2)cc1 -7.84%
CCOc1ccc(CCNC(=O)c2cc3c(=O)n(C)c4ccccc4c3s2)cc1OCC -14.7%
COc1ccccc1NC(=O)c1sc2cccc(Cl)c2c1Cl 10.6%
CC(=O)OCC(=O)[C@@]1(O)CC[C@H]2[C@@H]3CCC4=CC(=O)C=C[C@]4(C)[C@@H]3[C@@H](O)C[C@@]21C -12.4%
CCCC12CN3CC(C)(CN(C1)C3c1ccc(CC)cc1)C2=O (stereo not given) -12.8%
CCc1ccc(OCC(=O)NCC(c2ccc(Cl)cc2)N2CCOCC2)cc1 (stereo not given) -33.8%
O=C(CC(c1cccs1)N1Cc2ccccc2C1=O)Nc1ccccc1 (stereo not given) -27.2%
CCN1CCN(C(=O)Cn2ncc3c4ccccc4n(Cc4ccccc4F)c3c2=O)CC1 2.96%
O=c1cc2nc(-c3ccccc3)nc(SCc3cccc(Br)c3)n2[nH]1 -33.3%
Cc1cccc(N2CCN(C(c3ccc(F)cc3)c3nnc(-c4ccccc4)o3)CC2)c1C (stereo not given) -4.08%
COc1cccc(N2CCN(C(=O)c3cnc4c(C)cccn4c3=O)CC2)c1 1.47%
COc1ccc(N2CCN(C(CNC(=O)C(=O)NCc3ccc(C)cc3)c3cccnc3)CC2)cc1 (stereo not given) -29.5%
Cc1ccccc1-c1nc(NC(=O)CSc2ncnc3sc4c(c23)CCCC4)ns1 -3.59%
CC(C)Oc1ccc(CNC(=O)C2CCN(C(=O)N3CCOc4ccc(Cl)cc43)CC2)cc1 -34.5%
Cc1cccc(NC(=O)CSc2nc3ccccc3c3nc(CCn4cncc4C)nn23)c1 -7.66%
CNc1nc(Oc2ccc(=O)[nH]n2)nc(N2CCOCC2)n1 -5.68%
Nc1nc(F)nc2c1ncn2[C@@H]1O[C@H](COP(=O)(O)O)[C@@H](O)[C@H]1O 6.44%
COc1ccc(-n2cc(C(=O)Nc3ccccc3C#N)c3ccccc3c2=O)cc1 -7.73%
O=C(c1cccc([N+](=O)[O-])c1)N1CCN(CCc2ccncc2)CC1 -0.873%
CCOc1ccccc1NC(=O)c1nn(-c2ccc(OC)cc2)c(=O)c2c1c1ccccc1n2C -11.4%
COc1cccc(-n2cc(C(=O)Nc3ccccc3C(N)=O)c3ccccc3c2=O)c1 -20.2%
Cc1nc(SCCOc2ccc(Cl)cc2)[nH]c(=O)c1Cc1ccccc1 -7.52%
CCOc1ccc(NC(=O)Cn2c(=O)n(Cc3ccccc3)c(=O)c3c4c(sc32)CN(C(C)=O)CC4)cc1 -19%
CC(C)(C)c1ccc(S(=O)(=O)N2CCC(c3ccncc3)CC2)cc1 -88.4%
Cc1ccc(NC(=O)CN2C(=O)COc3ccc(S(=O)(=O)N4CCOCC4)cc32)c(Cl)c1 -2.26%
COc1ccccc1NC(=O)C1=C(C)Nc2ncnn2C1c1sccc1C (stereo not given) -7.25%
Cc1ccccc1CNC(=O)Cn1cc2c(n1)-c1c(oc(C(=O)N3CCCC3)c1C)CC2 -33.2%
COc1ccc(OC)c(CNC(=O)CCC(=O)N2Cc3ccccc3Oc3ncccc32)c1 -10%
COc1ccc2nc(NC(=O)c3nc(SCc4cccc(C)c4)ncc3Cl)sc2c1 -10.6%
COc1ccc(N2CC(NC(=O)C3CCCC3)CC2=O)cc1 (stereo not given) -6.88%
COC(=O)c1c(NC(=O)c2c(OC)cccc2OC)sc2c1CCCC2 -26.8%
CC1CCCCN1S(=O)(=O)c1ccc2[nH]c(=O)cc(C(=O)NCCc3ccc(Cl)cc3)c2c1 (stereo not given) -17.7%
COc1cccc(NC(=O)CC2Oc3ccccc3NC2=O)c1 (stereo not given) -4.27%
CC(=O)c1cccc(Nc2ncnc3c2cnn3-c2cccc(Cl)c2)c1 24.4%
COc1cccc(NC(=O)c2oc3ccc(S(=O)(=O)N4CCOCC4)cc3c2C)c1 -40.2%
CC(C)OCCCNC(=O)CN1C(=O)CSc2ccc(S(=O)(=O)N3CCOCC3)cc21 -11.2%
CC(=O)Nc1c(C(=O)Nc2ccccc2F)oc2ccccc12 22.4%
CCc1ccc(Nc2nc3c(S(=O)(=O)c4cccc(Cl)c4)nnn3c3ccsc23)cc1 -22.8%
O=C(CSc1n[nH]c(-c2ccccc2)n1)NCCc1ccccc1 -16.2%
NC[C@H]1O[C@H](O[C@H]2[C@@H](O)[C@@H](O[C@H]3O[C@H](CO)[C@@H](O)[C@H](N)[C@@H]3O)[C@H](N)C[C@@H]2N)[C@H](N)C[C@H]1O 1.72%
COc1cc(-c2nc3cnccn3c2Nc2ccc(C(C)C)cc2)ccc1O -42.8%
COc1cccc(CNC(=O)CCS(=O)(=O)c2cc3c4c(c2)CCN4C(=O)CC3)c1 -5.64%
COc1ccccc1-c1ccnc2c(-c3ccc(Br)cc3)c(C)nn12 -4.81%
CCc1ccc(Cn2c(CNS(=O)(=O)c3ccc(Cl)s3)nc3cccnc32)cc1 -27.9%
COc1ccc(CNC(=O)C(C)n2nc(C)c3sc4ccccc4c3c2=O)cc1OC (stereo not given) -24.3%
CCOC(=O)c1cc2c(=O)n3ccccc3nc2n(CC2CCCO2)c1=NC(=O)c1ccccc1F (stereo not given) 10.4%
Cc1nn2c(=O)cc(COC(=O)c3ccc(NC(=O)c4ccc(C(C)(C)C)cc4)cc3)nc2s1 -29.7%
COc1ccc(N(CC(=O)N2CCN(c3ccc(F)cc3)CC2)S(=O)(=O)c2c(C)nn(C)c2C)cc1 -15.6%
CC(=O)c1c(C)oc2ccc(N(C(=O)c3ccncc3)S(=O)(=O)c3ccc(F)cc3C)cc12 -40.2%
Cc1cccc(C(=O)Nc2sc3c(c2C(=O)O)CCCC3)c1 12.3%
Cc1cc(C)cc(NC(=O)CN(C)S(=O)(=O)c2ccc3c(c2)CCC(=O)N3)c1 -4.94%
COc1cc(Cl)c(NC(=O)CN(C)S(=O)(=O)c2ccc3[nH]c4c(c3c2)CCCC4)c(OC)c1 -36.9%
